Data on 153 variants can be found in a collection of fitness landscapes (doi:10.1016/j.celrep.2020.107928).

In all, about 81,000 sequences were measured (“one-hybrid fitness for binding parS DNA”: median about -0.17, highest 2% from about 0.51 on). The list shows a part of the results.

Sequences and labels used below:
B1: Caulobacter ParB omega fusion; a variant is named by its letters at X, in order, B8GW30 (parent)
chain: MESVVVGEPGMSEGRRGLGRGLSALLGEVDAAPAQAPGEQLGGSREAPIEILQRNPDQPRRTFREEDLEDLSNSIREKGVLQPILVRPSPDTAGEYQIVAGERAWRAAQRAGLKTVPIMVRELDDLAVLEIGIIENVQRADLNVLEEALSYKVLMEKFERTQENIAQTIGKSXSHVANXMRLLXLPDEVQSYLVSGELTAXHARAIAAAADPVALAKQIIEGGLSVRETEALARKAPNLSAGKSKGGRPPRVKDTDTQALESDLSSVLGLDVSIDHRGSTGTLTITYATLEQLDDLCNRLTRGI

This experiment covers variants of B1. Nature of the experiment: one-hybrid fitness for binding parS DNA (scaled: cognate 1, non-cognate 0); higher = stronger binding. To be noted: with parS DNA site. Summed up:
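Caulobacter ParB libraries with four specificity codons randomised were screened by bacterial one-hybrid selection in the E. coli USO strain, using a HIS3 reporter whose site lies 19 bp from the promoter. Selection ran for 48 hours at 37°C on M9 lacking histidine, with 0.1 mM IPTG and 5 mM 3-AT. Plasmids were Illumina-sequenced before and after selection, three replicate libraries were pooled, and variants with under 10 reads were dropped. Fitness is the log change in each variant's read ratio to wild type, rescaled against the cognate and non-cognate sites.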
Regarding HETL, the “one-hybrid fitness for binding parS DNA” value was ≤ 0.2.
Under KVYR stands ≤ 0.2.
AKTP: the “one-hybrid fitness for binding parS DNA” value is ≤ 0.2.
Under WTTI stands ≤ 0.2; under THAL, ≤ 0.2; under GWKS, ≤ 0.2.
The figure for RPQK is ≤ 0.2; for LQIS it is ≤ 0.2; for DKHR it is ≤ 0.2.
The figure for VPDF is ≤ 0.2; for SLTF it is ≤ 0.2; for RARM it is 0.343.
On to ADFD, for which the “one-hybrid fitness for binding parS DNA” value was ≤ 0.2.
The figure for RIPE is ≤ 0.2; for VVVT it is ≤ 0.2; for GECG it is ≤ 0.2.
As to QWSN, the “one-hybrid fitness for binding parS DNA” value is ≤ 0.2.
Under RTEA stands 0.58; under KTWN, ≤ 0.2.
Under WRWG stands ≤ 0.2.
Turning to GNCS, the “one-hybrid fitness for binding parS DNA” value was ≤ 0.2.
The figure for TFHY is ≤ 0.2.
The figure for MATY is ≤ 0.2; for TAKN it is ≤ 0.2.
As for RFSA, the “one-hybrid fitness for binding parS DNA” value stood at 0.572.
In the case of RHNY, the “one-hybrid fitness for binding parS DNA” value was found to be 0.37.
The figure for GQQL is ≤ 0.2; for QFHG it is ≤ 0.2; for TYCK it is ≤ 0.2.
For the variant KGTE, the “one-hybrid fitness for binding parS DNA” value is ≤ 0.2.
The figure for WNIG is ≤ 0.2; for SNKL it is ≤ 0.2; for KGVE it is ≤ 0.2.
Under PTLI stands ≤ 0.2; under LETV, ≤ 0.2.
Under PHPY stands ≤ 0.2.
With RWSF, the “one-hybrid fitness for binding parS DNA” value was ≤ 0.2.
With QAGM, the “one-hybrid fitness for binding parS DNA” value was ≤ 0.2.
Under VAIC stands ≤ 0.2.
Under WYRG stands ≤ 0.2; under FKMT, ≤ 0.2.
Consider KMCC, for which the “one-hybrid fitness for binding parS DNA” value was ≤ 0.2.
As to KRSW, the “one-hybrid fitness for binding parS DNA” value is ≤ 0.2.
Under YATS stands ≤ 0.2; under YEGR, ≤ 0.2; under IMDR, ≤ 0.2.
Consider YGKT, for which the “one-hybrid fitness for binding parS DNA” value is ≤ 0.2.
The figure for ICSY is ≤ 0.2; for QMQP it is ≤ 0.2.
The figure for QMRL is ≤ 0.2.
The figure for RCVM is 0.298; for IACC it is ≤ 0.2; for RPSE it is ≤ 0.2.
In the case of MGHV, the “one-hybrid fitness for binding parS DNA” value was ≤ 0.2.
Regarding STLY, the “one-hybrid fitness for binding parS DNA” value was ≤ 0.2.
CCRE: the “one-hybrid fitness for binding parS DNA” value is ≤ 0.2.
The figure for VMGR is ≤ 0.2; for VYNG it is ≤ 0.2.
Turning to QYYL, the “one-hybrid fitness for binding parS DNA” value is ≤ 0.2.
The figure for TRYI is ≤ 0.2; for HRKE it is ≤ 0.2.
For PVDG, the “one-hybrid fitness for binding parS DNA” value was ≤ 0.2.
The figure for HSEF is ≤ 0.2; for SCFT it is ≤ 0.2; for LDPI it is ≤ 0.2.
In the case of VHMG, the “one-hybrid fitness for binding parS DNA” value is ≤ 0.2.
Consider LPDR, for which the “one-hybrid fitness for binding parS DNA” value is ≤ 0.2.
Under AQKM stands ≤ 0.2; under WWRR, ≤ 0.2; under NSMG, ≤ 0.2.
With IDYR, the “one-hybrid fitness for binding parS DNA” value was ≤ 0.2.
Under QQPA stands ≤ 0.2; under RQGN, 0.441; under HGHR, ≤ 0.2.
The figure for HCTD is ≤ 0.2; for MKQR it is ≤ 0.2; for EDES it is ≤ 0.2.
Under WELN stands ≤ 0.2; under QEST, ≤ 0.2.
Take VHYG: the “one-hybrid fitness for binding parS DNA” value is ≤ 0.2.
Regarding AKSY, the “one-hybrid fitness for binding parS DNA” value was ≤ 0.2.
On to EGAS, for which the “one-hybrid fitness for binding parS DNA” value is ≤ 0.2.
Under NEAR stands ≤ 0.2.
The figure for GVKG is ≤ 0.2; for WMRS it is ≤ 0.2.
The figure for PTDS is ≤ 0.2; for QSKH it is ≤ 0.2; for QQAC it is ≤ 0.2.
On to LTYM, for which the “one-hybrid fitness for binding parS DNA” value is ≤ 0.2.
The figure for HCSW is ≤ 0.2; for WPET it is ≤ 0.2.
Under HMYE stands ≤ 0.2; under ATFE, ≤ 0.2; under YRWS, ≤ 0.2.
The figure for IYSA is ≤ 0.2; for HVWS it is ≤ 0.2.
Turning to PKPD, the “one-hybrid fitness for binding parS DNA” value is ≤ 0.2.
As to MHKS, the “one-hybrid fitness for binding parS DNA” value is ≤ 0.2.
Regarding HSTG, the “one-hybrid fitness for binding parS DNA” value is ≤ 0.2.
As to QYPY, the “one-hybrid fitness for binding parS DNA” value was ≤ 0.2.
As to NQTR, the “one-hybrid fitness for binding parS DNA” value is ≤ 0.2.
Take NRTW: the “one-hybrid fitness for binding parS DNA” value was ≤ 0.2.
Take QLIY: the “one-hybrid fitness for binding parS DNA” value is ≤ 0.2.
Under TVDG stands ≤ 0.2; under PEAY, ≤ 0.2; under GCFC, ≤ 0.2.
Under FTNP stands ≤ 0.2; under TKAS, ≤ 0.2.
The figure for CFQR is ≤ 0.2; for RIEF it is ≤ 0.2.
Turning to EPRQ, the “one-hybrid fitness for binding parS DNA” value was ≤ 0.2.
Regarding EVWR, the “one-hybrid fitness for binding parS DNA” value was ≤ 0.2.
Under QYTV stands ≤ 0.2; under EKLD, ≤ 0.2; under QGTG, ≤ 0.2.
The figure for AFRL is ≤ 0.2; for PGKR it is ≤ 0.2; for PWGS it is ≤ 0.2.
The figure for GLAP is ≤ 0.2; for RRNY it is 0.727; for MEGT it is ≤ 0.2.
Consider KALR, for which the “one-hybrid fitness for binding parS DNA” value is ≤ 0.2.
Under SPYR stands ≤ 0.2; under PLMH, ≤ 0.2; under AIHG, ≤ 0.2.
The figure for RKMS is 0.876; for HSSM it is ≤ 0.2; for VGTH it is ≤ 0.2.
The figure for NHTS is ≤ 0.2; for VPRE it is ≤ 0.2.
Turning to QAMD, the “one-hybrid fitness for binding parS DNA” value was ≤ 0.2.
The figure for MTTR is ≤ 0.2; for PMVF it is ≤ 0.2.
Under HSTV stands ≤ 0.2.
The figure for RYFY is 0.43; for HPDP it is ≤ 0.2.
In the case of DKQR, the “one-hybrid fitness for binding parS DNA” value was ≤ 0.2.
The figure for NSHA is ≤ 0.2; for RLDA it is 0.588; for HGKW it is ≤ 0.2.
The figure for IQYG is ≤ 0.2.
The figure for CRDR is ≤ 0.2; for RSAF it is 0.266.
As for AMAM, the “one-hybrid fitness for binding parS DNA” value was ≤ 0.2.
Under STGL stands ≤ 0.2.
For YKRQ, the “one-hybrid fitness for binding parS DNA” value is ≤ 0.2.
Turning to PPSC, the “one-hybrid fitness for binding parS DNA” value is ≤ 0.2.
For RTYS, the “one-hybrid fitness for binding parS DNA” value came to 1.
Under GCPT stands ≤ 0.2; under VSVN, ≤ 0.2; under IWGT, ≤ 0.2.
Under REIS stands ≤ 0.2; under CYHP, ≤ 0.2.
